Data: the supplement of paper PMC11417369
± gives the standard deviation of the averaged measurements. This is one part of the list.

The sequences below were run on PfAP2-LT AP2 domain (GST-tagged) (assay: gcPBM binding intensity (ln(normalized median fluorescence intensity)); higher = stronger DNA binding).
Summary of the method: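 Binding intensity is defined as the maximum Masliner-normalised natural-log median intensity across replicate spots for either probe orientation. It was measured on an Agilent 4 × 180k array of primer-extended double-stranded 36-bp intergenic genomic probes and negative controls, to which GST-tagged P. falciparum DNA-binding domains made in E. coli were applied for 1 h in 1× PBS with 1% milk, 0.2 mg/ml BSA, 0.5% salmon testes DNA and 0.03% Triton X-100. Detection was by Alexa488 anti-GST antibody and scanning at 488 nm.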
For “ATTATATTCTTTACTACCAATTAGTAGAAAATAAAA [CACACA_negctrl_site1096]”, the “gcPBM binding intensity (ln)” value was 8.25 ± 0.44. “TTAAAATAGCTAGTTTGTACATAAAATATATTACTT [XGTACX_site202]” was tested, and the “gcPBM binding intensity (ln)” value was 8.56 ± 0.43. For “AATATATATATATATATTTTTGTTAGAATATGGAAT [GTGCAC_negctrl_site434]”, the “gcPBM binding intensity (ln)” value was 8.65 ± 0.32. With “TTTTAAAAAATATAATAATATAAATATGTTTTATAC [CACACA_negctrl_site643]” the “gcPBM binding intensity (ln)” value was 8.2 ± 0.42. For “TAAATAAATAAAAATAGTACATAATTATTATTATTA [XGTACX_site4981]”, the “gcPBM binding intensity (ln)” value was 8.48 ± 0.56. With “ATATATATGTATGTATGTACACACAAAAAATGGAAT [XGTACX_site7879]” the “gcPBM binding intensity (ln)” value was 9.65 ± 0.38. In the case of “AAAAAAAAAAAAAAAACACACATTTTAAGAAAAAAA [CACACA_site2926]”, the “gcPBM binding intensity (ln)” value is reported as 8.45 ± 0.57. For “TACAAAATAAATGGAACATGCAAAAAAATTGATTAA [TGCATGCA_site790]”, the “gcPBM binding intensity (ln)” value was 8.82 ± 0.45. “ATATGCTATTATATATGTACACACCAATTTATTTAT [XGTACX_site8364]” was tested, and the “gcPBM binding intensity (ln)” value was 9.16 ± 0.38. With “TATTTAATTATTTGTAGTACGATTAATATTTAATGA [XGTACX_site3553]” the “gcPBM binding intensity (ln)” value was 8.45 ± 0.34. For “ATAGAATATTAATAATTAAAAATAAAATAAAATAAA [CACACA_negctrl_site1810]”, the “gcPBM binding intensity (ln)” value was 8.54 ± 0.44. “CTTAATAAGAATAAATGTACAAGGGATAAAAAATTT [XGTACX_site3213]” was tested, and the “gcPBM binding intensity (ln)” value was 8.71 ± 0.42. With “CAAAAGTAAGCACGCACACACAACATGAAATAAACT [CACACA_site6223]” the “gcPBM binding intensity (ln)” value was 9.91 ± 0.49. With TTAATTAATTTTTCAGTGCAAATAAAAAATATTTAA the “gcPBM binding intensity (ln)” value was 8.12 ± 0.46. With “TATACGCAGAAACACACACACATACACCCACATACA [CACACA_site1723]” the “gcPBM binding intensity (ln)” value was 10 ± 0.26. For “TATCTTATAAACTCTGCACACATAATATATTAAATG [CACACA_site8587]”, the “gcPBM binding intensity (ln)” value was 9.05 ± 0.36. In the case of “AACGTTCATAATTATTGTACCCTCATTTTATTTTTT [XGTACX_site503]”, the “gcPBM binding intensity (ln)” value is reported as 9.04 ± 0.52. In the case of “AAAAATTTTAATTAGGAACACACATATATATATATA [CACACA_site9016]”, the “gcPBM binding intensity (ln)” value is reported as 9.48 ± 0.42. “ATAACTTTTTAAAAGACACACATAAGAAAAACAAAA [CACACA_site723]” was tested, and the “gcPBM binding intensity (ln)” value was 8.8 ± 0.52. With “ATAAAACGAAGATGTTGTACGTACAAATAAATGAAT [XGTACX_site2472]” the “gcPBM binding intensity (ln)” value was 9.48 ± 0.51. For “TATATTAGAAAGGATACACACATATATATATATCTA [CACACA_site570]”, the “gcPBM binding intensity (ln)” value was 8.98 ± 0.34. For “ATTCATTCATATGTTACACACACACCGACACATAAA [CACACA_site5749]”, the “gcPBM binding intensity (ln)” value was 9.62 ± 0.16. In the case of “TTTTGAAGTAACAAATAAATAAATAAATATATAAAA [GTGCAC_negctrl_site517]”, the “gcPBM binding intensity (ln)” value is reported as 8.47 ± 0.42. “TATTAAACTGGACACACACACACACCCATATATAAA [CACACA_site4579]” was tested, and the “gcPBM binding intensity (ln)” value was 10.15 ± 0.021. “GACTTTTCAATTTTTCGTACGTATAAATTGTATACA [XGTACX_site1488]” was tested, and the “gcPBM binding intensity (ln)” value was 8.91 ± 0.33. For “TTTTGTTACTTTTATGTGCACTTATAAAACGAACTA [GTGCAC_site9551]”, the “gcPBM binding intensity (ln)” value was 8.73 ± 0.43. “TTTTTATTGTTGTACTTATATTATTTTATTATTAAA [GTGCAC_negctrl_site200]” was tested, and the “gcPBM binding intensity (ln)” value was 8.65 ± 0.47. In the case of “CTAATATATATCAATTGTACATATTGAATAAGAACA [XGTACX_site4541]”, the “gcPBM binding intensity (ln)” value is reported as 8.79 ± 0.35. In the case of “AAAAAATGGATGATCACACACTTCATAAAAATTGCA [CACACA_site5256]”, the “gcPBM binding intensity (ln)” value is reported as 8.88 ± 0.5. With “AAAAAAAAAAAAAAATGTACCCATATATAAATATAT [XGTACX_site4061]” the “gcPBM binding intensity (ln)” value was 8.52 ± 0.48. In the case of “TTTAATTATAAAACGTGTACATAATTATAATTACAT [XGTACX_site2206]”, the “gcPBM binding intensity (ln)” value is reported as 8.71 ± 0.44. “ATCATTTGCTCACGCACACACACATAAAAAGAAAAA [CACACA_site4349]” was tested, and the “gcPBM binding intensity (ln)” value was 9.4 ± 0.28. With “AAAAATAGTATAAGTAGTACAACTGAAAAGTTATGT [XGTACX_site7488]” the “gcPBM binding intensity (ln)” value was 9.16 ± 0.22. In the case of “ATTATGTACAAAATGGTGCAATATTATACATATATA [GTGCAC_site9468]”, the “gcPBM binding intensity (ln)” value is reported as 8.91 ± 0.42. With “AAAATAATCACATATTGTACAAAAAAATTTATTAAA [XGTACX_site3239]” the “gcPBM binding intensity (ln)” value was 8.59 ± 0.66. “ACATAATTTGATAATACACACAAATAATCTAAAATT [CACACA_site129]” was tested, and the “gcPBM binding intensity (ln)” value was 8.92 ± 0.48. “TATATTAATATGAAAAGTACACATTCTATATATATA [XGTACX_site929]” was tested, and the “gcPBM binding intensity (ln)” value was 8.59 ± 0.43. “AACATAATAAAAAAACGTACATAATTTTATATACAT [XGTACX_site6602]” was tested, and the “gcPBM binding intensity (ln)” value was 8.87 ± 0.41. With “TTTATTATCTTATTCACACACATATATAAATATGTA [CACACA_site7369]” the “gcPBM binding intensity (ln)” value was 9.06 ± 0.42. In the case of “AAAAAAAAAACATACACACACACAAATATTTATATA [CACACA_site437]”, the “gcPBM binding intensity (ln)” value is reported as 9.91 ± 0.18. In the case of “ATATATCCAATATATATATATATATATATATATATA [CACACA_negctrl_site160]”, the “gcPBM binding intensity (ln)” value is reported as 9.54 ± 0.057. For “ACATTCATAAAAAAAAGTACATTTTTTATAAAAGAA [XGTACX_site6197]”, the “gcPBM binding intensity (ln)” value was 8.53 ± 0.49. “TTGTTAAATATTTATAAAATGAATTTAAAATGTACT [CACACA_negctrl_site665]” was tested, and the “gcPBM binding intensity (ln)” value was 8.27 ± 0.37. “AAGAAAAAATGATGAATAGAGATCAAATCTATATAT [TGCATGCA_negctrl_site29]” was tested, and the “gcPBM binding intensity (ln)” value was 8.69 ± 0.49. For “TAGTTTTTATATAGCACACATATTGTGATTATGTAT [CACACA_site1196]”, the “gcPBM binding intensity (ln)” value was 8.96 ± 0.35. For “TTTATATATAAATATATATATATATATATATATATA [TGCATGCA_negctrl_site121]”, the “gcPBM binding intensity (ln)” value was 9.265 ± 0.05. “ATAATATAGAAACACACACACATATATATATACATT [CACACA_site555]” was tested, and the “gcPBM binding intensity (ln)” value was 9.77 ± 0.3. With “AAATTATGTGCCAATACACACACACCGATATATATA [CACACA_site8050]” the “gcPBM binding intensity (ln)” value was 9.92 ± 0.21. For “AATTCATTTTACCCATGTACACAATTATATTTTATA [XGTACX_site4127]”, the “gcPBM binding intensity (ln)” value was 8.85 ± 0.53. With “TTCTTAGATTGTACAGTACACACCTTTAGAATGTTA [CACACA_site212]” the “gcPBM binding intensity (ln)” value was 8.87 ± 0.45. In the case of “TACTACCACGGACATGCATGCACATTATTACTCTAA [TGCATGCA_site313]”, the “gcPBM binding intensity (ln)” value is reported as 9.12 ± 0.43. For “TGAATAAATCAAAGCACACATACACCCACATATATA [CACACA_site286]”, the “gcPBM binding intensity (ln)” value was 9.47 ± 0.24. “TGCTACATTTTATGTACACACATATACAGATATATA [CACACA_site4646]” was tested, and the “gcPBM binding intensity (ln)” value was 8.9 ± 0.4. “ACATAATAAAAATAAATTCATAAGTAAATAAATAAA [TGCATGCA_negctrl_site186]” was tested, and the “gcPBM binding intensity (ln)” value was 8.68 ± 0.59. With “AATAATATTTAATACACACACCAGTTCTGCAAATTT [CACACA_site7712]” the “gcPBM binding intensity (ln)” value was 9.25 ± 0.35. With “GAAAAAAGAAATTAAACATGCATCTGCAAATTTAAA [TGCATGCA_site974]” the “gcPBM binding intensity (ln)” value was 8.6 ± 0.49.
